# Among all 310,000 compounds or so, about 17,000 (5.5%) were called active. Another 11% or so got no clear call; they are omitted. Calls follow the shape of the dose curve; as a rule, active = well fitted inhibition curve with a large enough effect; inconclusive = small, poorly fitted or top-dose-only effect, or effect the other way; inactive = no such curve, though single readings can be large or run the other way. The entries are a selection whose mix differs from that of the whole data set.
# Biological target: Nuclear receptor ROR-gamma (Mus musculus) (UniProt P51450)
# Sequence of UniProt P51450 (P51450 whole entry, looked up): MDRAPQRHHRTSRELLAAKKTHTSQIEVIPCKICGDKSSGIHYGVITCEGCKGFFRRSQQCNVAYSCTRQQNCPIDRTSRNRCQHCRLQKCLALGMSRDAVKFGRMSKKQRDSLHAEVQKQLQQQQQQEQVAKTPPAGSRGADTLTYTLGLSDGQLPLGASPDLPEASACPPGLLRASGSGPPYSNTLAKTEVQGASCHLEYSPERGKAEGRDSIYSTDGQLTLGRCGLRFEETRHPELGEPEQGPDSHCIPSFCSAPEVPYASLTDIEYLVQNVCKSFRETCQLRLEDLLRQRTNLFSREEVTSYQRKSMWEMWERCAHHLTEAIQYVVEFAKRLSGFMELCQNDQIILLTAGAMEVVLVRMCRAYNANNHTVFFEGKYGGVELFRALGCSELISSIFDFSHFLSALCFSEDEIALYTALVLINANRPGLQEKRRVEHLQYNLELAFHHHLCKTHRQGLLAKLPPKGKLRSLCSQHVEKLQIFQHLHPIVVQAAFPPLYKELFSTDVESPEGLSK
# Experiment: qHTS for inhibitors of ROR gamma transcriptional activity; also: nearly all actives have a fitted effect of over 60% in size
# Settings: Drosophila S2 Gal4-RORgamma UAS-luciferase reporter, 20 h; series mostly up to 53.6 µM; activity change, negative = inhibition: at the top concentration
# In short: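 Schneider cells (Drosophila), stable Gal4 DBD–ROR gamma + UAS-luc; 1 hr cmpd preincubation; Cu2+ induction 700 uM final; 20 hr ambient; luminescence.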
# % is scaled to controls: 0 for no effect and ±100 for the full control effect; potency is read from the fitted curve at half-maximal effect.
SMILES,"activity change, negative = inhibition",Potency
O=C(NCc1ccccc1)C1=C[C@@H](c2ccc(C(F)(F)F)cc2)C[C@@H](OCc2ccc(CO)cc2)O1,inactive: 9.77%,
C#CCN(C)CCCOc1ccc(Cl)cc1Cl,,inactive
CC(=O)C1=C(C)N(CC2CC2)C(=O)N[C@H]1c1ccccc1,inactive: 4.1%,
Cc1ccc(N2C(=O)/C(=C/c3ccco3)SC2=S)cc1,inactive: 21.4%,
Cn1c(=O)c(C(=O)COC(=O)c2cc(C(F)(F)F)nc3c(C(F)(F)F)cccc23)c(N)n(CC2CC2)c1=O,inactive: 14.6%,
CN(C/C=C/C#CC(C)(C)C)Cc1cccc2ccccc12,inactive: 35.1%,
O=C(NCc1nc2ccccc2[nH]1)C1=C[C@@H](c2ccc3c(c2)OCO3)C[C@@H](OCc2ccc(CO)cc2)O1,inactive: -18.7%,
Cc1ccc(Cl)cc1NC(=O)COC(=O)C12CC3CC(CC(C3)C1)C2,inactive: -18.3%,
O=C(/C=C/Nc1cccc(O)c1)c1ccccc1,,active: 5.01 µM
COc1ccc(-c2n[nH]c(=S)n2Cc2ccccc2)cc1OC,,active: 11.2 µM
COc1ccc2cc1Oc1ccc(cc1)CC1c3c(cc4c(c3Oc3cc5c(cc3OC)CCN(C)C5C2)OCO4)CCN1C (centres undefined),inactive: -18.8%,
O=C(NCc1ccccc1)C1=C[C@H](C2CCCCC2)C[C@H](OCc2ccc(CO)cc2)O1,inactive: 0.553%,
CCOc1cccc(C(=O)NC(=S)Nc2cccnc2)c1,,active: 14.1 µM
O=C(c1cc2ccccc2o1)N1CCN(Cc2ccccc2)CC1,inactive: 31.1%,
CCOC(=O)c1ccc(N)cc1,inactive: 6.85% [at 2.98 µM],
CCCn1c(=S)[nH]c2sc3c(c2c1=O)CCCC3,,active: 0.282 µM
CC(C)(C)Nc1nc(-c2ccccn2)nc2ccccc12,,active: 1.41 µM
O=C(CCCN1C(=O)/C(=C/c2cccs2)SC1=S)NNC(=O)c1cccnc1,inactive: -16.7%,
CCO[C@@H]1OC(C(=O)NCc2ccccc2)=C[C@H](c2ccc(Br)cc2)[C@H]1CCCO,inactive: 7.63%,
CC(C)c1ccc2c(c1)c(SC(C)(C)C)c(CC(C)(C)C(=O)O)n2Cc1ccc(Cl)cc1,,inactive

SMILES,"activity change, negative = inhibition",Potency
COC(=O)[C@@H]1C[C@H]1[C@@H](NC(=O)c1ccccc1)c1ccccc1,,inactive
CCN(CC)CCC(c1cc(OC)c(OC)c(OC)c1)c1c(OC)cc(OC)c2c(-c3ccccc3)cc(=O)oc12 (centres undefined),inactive: -39.1%,
COc1ccc(CNC(=O)c2ccc(Br)o2)cc1,inactive: 30.7%,
C[C@@H]1C[C@H]2[C@@H]3C[C@H](F)C4=CC(=O)C=C[C@@]4(C)[C@]3(F)[C@H](O)C[C@]2(C)[C@@]1(O)C(=O)CO,inactive: -6.73% [at 2.98 µM],
CCCCCCCCNc1ncnc2ccccc12,,active: 2.24 µM
C=C(C)C1CC=C(C)/C(=N\NC(=O)CNc2ccccc2OC)C1 (centres undefined),inactive: 18.3%,
COc1ccccc1C1=Nn2c(nnc2-c2ccccc2C)SC1,inactive: -0.543%,
CC(C)c1ccc(C2c3[nH]c4ccccc4c3C[C@H]3C(=O)N(c4ccccc4C(=O)N4CCC[C@@H]4C(=O)O)C(=O)N23)cc1 (some centres undefined),inactive: 41.1%,
O=C1NC(=O)C(c2ccccc2)(c2ccccc2)N1,,inactive
CCN(CC)CCC(c1ccc2c(c1)OCO2)c1c(OC)cc(OC)c2c(-c3ccccc3)cc(=O)oc12 (centres undefined),inactive: -31.2%,
CCCCCCC(=O)N1C/C=C\C(c2ccc(OC)cc2)N(Cc2ccc(F)cc2)C(=O)C1 (centres undefined),inactive: -5.05%,
CCO[C@H]1OC(C(=O)NCc2ccccc2)=C[C@@H](C)[C@@H]1CCCO,inactive: -0.0608%,
O=C(O)CCn1cc(/C=C/C(=O)c2ccc(Cl)cc2)c(-c2cccc(Br)c2)n1,inactive: 19.9%,
COc1ccc(SCC(CC(C)C)N2CCN(CCc3ccccc3)CCC2=O)cc1 (centres undefined),inactive: 12.7%,
C/C(CC(=O)Nc1ccc([N+](=O)[O-])cc1)=N\NC(=O)c1ccccc1O,,active: 11.2 µM
CCCCOC(=O)C1[C@H]2C(=O)N(CCc3ccccc3)C[C@]23C=C[C@H]1O3 (some centres undefined),inactive: 2.49%,
Cc1ccc(C2c3[nH]c4ccccc4c3C[C@H]3C(=O)N(c4ccccc4C(=O)N4CCC[C@@H]4C(=O)O)C(=O)N23)cc1 (some centres undefined),inactive: 19.1%,
C#CCNC(=O)C1=C[C@H](c2ccccc2)[C@@H](CCCO)[C@H](OCC)O1,inactive: 11.6%,
COc1ccc(NC(=S)/N=C(\N)Nc2nc(C)c3ccccc3n2)cc1,,active: 1 µM
CCC(NC(=S)NC1CCCCC1)c1ccccc1 (centres undefined),,active: 3.16 µM

SMILES,"activity change, negative = inhibition",Potency
O=C1/C(=C\c2cccnc2)SC(=S)N1c1ccc(F)cc1,inactive: 14.9%,
CCCC1OC2CC3C4CCC5=CC(=O)C=CC5(C)C4C(O)CC3(C)C2(C(=O)CO)O1 (centres undefined),inactive: -37.5%,
O=C(CCCN1C(=O)/C(=C\c2cccc(Br)c2)SC1=S)Nc1cccnc1,inactive: 0.881%,
O=C(C1=C[C@@H](c2ccc(Br)cc2)C[C@@H](OCCCCO)O1)N1CCN(Cc2ccccc2)CC1,inactive: -43.2%,
CNCC(O)c1ccc(O)c(O)c1 (centres undefined),inactive: 8.72%,
O=C(NCc1nc2ccccc2[nH]1)C1=C[C@@H](C2CCCCC2)C[C@@H](OCc2ccc(CO)cc2)O1,inactive: -37.9%,
CCCCCCC(=O)Cc1cc(OC)c(OC)cc1C=C(C(=O)OCC)C(=O)OCC,inactive: -9.84% [at 10 µM],
O=[N+]([O-])C(/C=C(/Cl)[N+](=O)[O-])=C(N1CCCCC1)N1CCCCC1,inactive: -38.7%,
COc1ccc(Cl)cc1C(=O)NCCc1ccc(S(=O)(=O)NC(=O)NC2CCCCC2)cc1,,inactive
COc1cc2c3nnc(-c4ccc(F)cc4)c-3cn(Cc3ccc(C)cc3)c2cc1OC,,active: 5.01 µM
CC#C[C@]1(O)CC[C@H]2[C@@H]3CCC4=CC(=O)CCC4=C3[C@@H](c3ccc(N(C)C)cc3)C[C@@]21C,inactive: -29.2%,
Cc1ccc(-c2cc(C3C4C=CCCC4(C)C(=O)N3Cc3ccccc3)ccc2F)cc1 (centres undefined),inactive: 14.5%,
CC(C)c1nnc(NC(=O)CSc2nnc(-c3ccco3)o2)s1,,active: 11.2 µM
Cc1c(Cl)cccc1NC(=S)NCCC(C)C,,active: 4.47 µM
COCC(=O)N/N=C\c1ccc(OC/C=C/c2ccccc2)c(OC)c1,,active: 12.6 µM
C=C1C(=O)O[C@H]2[C@H]1[C@@H](O)CC(=C)[C@@H]1CC(=O)[C@@H](C)[C@H]21,,active: 12.6 µM
Cn1cc[nH]c1=S,,inactive
CC1=NS(=O)(=O)c2cc(Cl)ccc2N1,,inactive
COc1cccc(OC)c1C(=O)NC(=S)N1CCN(c2ccc(C(F)(F)F)cc2[N+](=O)[O-])CC1,,active: 7.08 µM

# From PubChem BioAssay AID2551 (National Center for Advancing Translational Sciences (NCATS), 2010)
